Assay results reported in PubChem BioAssay AID686979 (National Center for Advancing Translational Sciences (NCATS), 2013).
Several values for one entry are separate records, joined by “and”; a condition that tells them apart may be missing. Identical values can stand only once. Among all 420,000 compounds or so, about 50,000 (12%) were called active. Inconclusive results, whose numbers are uncertain, are shown with a selection of clear calls. The call rests on the fitted dose curve; in most records, active means well fitted inhibition curve with a large enough effect; inconclusive means small, poorly fitted or top-dose-only effect; inactive means flat fitted curve, though single readings scatter. Potencies of inconclusive entries are left out as doubtful fits. Where a SMILES comes first, the peptide text is derived from it. [ ]: non-standard residue; d: D form. ξ: configuration not given here. Ac5c = NC1(C(=O)O)CCCC1; ξS = NC(CO)C(=O)O

Assay: qHTS for Inhibitors of human tyrosyl-DNA phosphodiesterase 1 (TDP1): qHTS in cells in presence of CPT; further: nearly all actives have a fitted effect of over 55% in size
Details: chicken DT40 Tdp1-/-;hTDP1 cells + 20 nM CPT, ATP luminescence, 48 h; activity change, negative = growth inhibition: at 46.2 µM (top of the series)
Procedure, shortened: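 Cell growth measured by CellTiter-Glo luminescence after a minimum 48 h, 37 C compound exposure with 20 nM CPT in Tdp1-knockout DT40 cells stably expressing hTDP1, seeded 400/well; qHTS titration format.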
On the % scale 0 is the no-effect control and ±100 the full control effect; potency means the concentration at half of the fitted maximal effect; tags describe the fitted curve by direction and shape.

| Compound | Potency | activity change, negative = growth inhibition |
| --- | --- | --- |
| COc1ccc(CN(C)C(=O)C2CSC3(C)CCC(=O)N23)c(OC)c1 (stereo not given) | active: 11.6 µM |  |
| CCOC(=O)COc1ccc(CC)cc1C(=O)c1ccn2nc(-c3ccc(C)cc3)cc2n1 | inconclusive [inhibitor, single point] |  |
| COP(=O)(OC)c1nc(-c2ccc(C)cc2)oc1N1CCCCC1 | inconclusive [inhibitor, single point] |  |
| N#Cc1c(C(F)(F)F)cc(-c2cccs2)nc1SCC(=O)Nc1cccc(Br)c1 | inconclusive [inhibitor, single point] |  |
| Cc1onc(-c2c(F)cccc2Cl)c1C(=O)OCC(=O)c1c[nH]c2ccccc12 | inconclusive [inhibitor, single point] |  |
| Cc1ccc(C(=O)N2CCN(c3ccccc3)CC2)cc1NC(=O)c1nsc2ccccc12 | active: 20.6 µM |  |
| CC(C)N1CC(C(=O)Nc2cc(Cl)cc(Cl)c2)CC1=O (stereo not given) |  | inactive: -3.89% |
| Cc1ccc(-c2nnc(Nc3ccc(F)cc3)c3ccccc23)cc1S(=O)(=O)NC(C)C | inconclusive [inhibitor, single point] |  |
| CCOc1ccccc1OCCC(=O)OCC(=O)Nc1c(C)nn(-c2ccccc2)c1C |  | inactive: -12.4% |
| O=C(NCCCN1CCN(c2ccccc2F)CC1)c1ccc2nc(Cc3ccccc3)oc2c1 | inconclusive [inhibitor, single point] |  |
| Nc1cc(N)nc(SCc2cc([N+](=O)[O-])cc3c2OCOC3)n1 | inconclusive [inhibitor, single point] |  |
| CCOc1ccc(-c2cc(NC(=O)Nc3ccccc3Cl)c(C(=O)OC)s2)cc1 | inconclusive [inhibitor, single point] |  |
| CC1CCN(c2ccc([N+](=O)[O-])cc2C(=O)N2CCOCC2)CC1 | inconclusive [inhibitor, single point] |  |
| Cc1cccc(NC(=O)/C(=C\c2ccc([N+](=O)[O-])o2)NC(=O)c2ccc(Cl)cc2)c1 | inconclusive [inhibitor, partial curve] |  |
| CCOC(=O)C(CO)NC(=O)C1(NC(C)=O)CCCC1 (stereo not given) (Ac-[Ac5c]-[ξS]-OEt) |  | inactive: 18% |
| OC(COc1c(F)cc(Br)cc1F)CN1CCc2ccccc2C1 (stereo not given) | inconclusive [inhibitor, partial curve] |  |
| C(=C\c1ccccc1)/CN1CCN(C(c2cccc3ccccc23)c2nnnn2-c2ccc3c(c2)OCCO3)CC1 (stereo not given) | active: 13 µM |  |
| O=C(Nc1nnc(C2=COCCO2)o1)c1ccc(S(=O)(=O)N2CCCC2)cc1 | inconclusive [inhibitor, partial curve] |  |
| CCNc1nc(Oc2ccc(=O)n(-c3ccccc3)n2)nc(N2CCOCC2)n1 | inconclusive [inhibitor, single point] |  |
| COCCCn1c(=O)c2sccc2n(Cc2cccc(C)c2)c1=O | inconclusive [inhibitor, single point] |  |
| CCCc1nc2ccccc2c(=O)n1/N=C/c1ccccc1O | inconclusive [inhibitor, single point] |  |
| Cc1ccc(CNC(=O)CN2N=C(c3ccc(C)cc3)CCC2=O)cc1 |  | inactive: -13.5% |
| CC(C)CC[C@@H](O)[C@](C)(O)C1CC[C@@]2(O)C3=CC(=O)[C@@H]4C[C@@H](O)[C@@H](O)C[C@]4(C)C3CC[C@]12C (stereo not given in full) |  | inactive: -5.21% |
| CN=c1scc(-c2cc(OC)ccc2OC)n1/N=C/c1c(C)[nH]c2ccccc12 | inconclusive [inhibitor, partial curve, poor fit] |  |

| Compound | Potency | activity change, negative = growth inhibition |
| --- | --- | --- |
| Cc1ccccc1OCC(=O)N/N=C/c1ccc([N+](=O)[O-])o1 | active: 10.3 µM |  |
| CCN(CC)S(=O)(=O)c1ccc2c(c1)c(=O)c(C(=O)N1CCN(c3ccc(OC)cc3)CC1)cn2C |  | inactive: -0.511% |
| Cc1ccc(C(=O)N2CCCC(Nc3ccc(C(C)C)cc3)C2)cn1 (stereo not given) | inconclusive [inhibitor, single point] |  |
| COc1cccc(-c2nn(-c3ccccc3)cc2C(=O)OCC(=O)Nc2ncc(Cl)cc2Cl)c1 | inconclusive [inhibitor, partial curve, poor fit] |  |
| COc1ccc(C(=O)OCC(=O)c2c(N)n(C)c(=O)n(C)c2=O)c(OC)c1OC |  | inactive: 1.25% |
| CC(C)N1CCC(N2CCN(C/C=C/c3ccc(F)cc3)CC2CCO)CC1 (stereo not given) | inconclusive [inhibitor, single point] |  |
| O=C(NCc1ccco1)C1CCCN(c2nnc(-n3cccc3)s2)C1 (stereo not given) |  | inactive: -5.24% |
| O=C(NCCc1ccc(Cl)cc1)C1CCC(=O)N1Cc1ccc(F)cc1 (stereo not given) |  | inactive: -3.46% |
| O=C(N/N=C/c1cc(Cl)cc(Cl)c1O)c1ccncc1 | active: 6.51 µM |  |
| COc1ccc2cc1Oc1ccc(cc1)C[C@H]1c3c(cc4c(c3Oc3cc5c(cc3OC)CCN(C)[C@@H]5C2)OCO4)CCN1C | active: 6.51 µM |  |
| Cc1ccc(S(=O)(=O)N2CCN(CC(=O)Nc3ccccc3C(=O)NC3CC3)CC2)cc1 | inconclusive [inhibitor, single point] |  |
| COc1ccc(OC(C)C(=O)N(C)Cc2nc(-c3ccc(OC)cc3)no2)cc1 (stereo not given) | inconclusive [inhibitor, single point] |  |
| Cc1ccc(S(=O)(=O)NCC(=O)OCN2C(=O)c3ccccc3C2=O)cc1 | inconclusive [inhibitor, single point] |  |
| Cc1ccc2cc(CN(CCN3CCCC3)C(=O)Nc3ccc(F)cc3)c(=O)[nH]c2c1C | active: 23.1 µM |  |
| Cc1cc(C(N)=O)c2ccccc2n1 |  | inactive: 0.833% |
| Cn1c(-c2cccc(Br)c2)cnc1NCc1cccc(F)c1 | inconclusive [inhibitor, single point] |  |
| CC[C@@]12C(=O)N(c3cccc(Br)c3)C(=O)N1[C@H](c1ccc(OC)cc1)[C@@H]1C(=O)N(C(C)(C)C)C(=O)[C@@H]12 | inconclusive [inhibitor, single point] |  |
| COc1ccccc1C=CC(=O)C=Cc1ccccc1OC | active: 4.61 µM |  |
| CCCCCCCCN1C(=O)[C@H](CC(=O)NCCc2ccccc2OC)C[C@@]2(C(=O)OCC)CCCC=C12 | inconclusive [inhibitor, single point] |  |
| CCN(CC(=O)NCc1ccc(Cl)cc1)C(=O)COc1ccc(Cl)cc1Br |  | inactive: -23.6% |
| COc1ccc(CC(=O)Nc2nc(C)cs2)cc1 |  | inactive: 7.38% |
| COc1ccc(C)cc1NC(=O)C1CCN(C(=O)Cc2ccccc2)CC1 |  | inactive: 11.7% |
| COc1ccc2c(c1)C(=O)C(=O)N2CC1COc2ccccc2O1 (stereo not given) | active: 1.03 µM |  |
| COCCNC(=S)N/N=C(\C)c1ccc(OC(F)F)cc1 | active: 16.4 µM |  |

| Compound | Potency | activity change, negative = growth inhibition |
| --- | --- | --- |
| Cc1ccc(S(=O)(=O)n2cc(CO)c3ccccc32)cc1 |  | inconclusive: -18.6% [inhibitor] |
| CN(C)S(=O)(=O)c1ccc(NC(=O)CN2CCN(c3ccccn3)CC2)cc1 | inconclusive [inhibitor, partial curve, poor fit] |  |
| Cc1ccc(NCc2nnc(SCC(=O)NCc3ccco3)n2CC2CCCO2)cc1Cl (stereo not given) | inconclusive [inhibitor, single point] |  |
| O=C(CCn1c(=S)[nH]c2ccccc2c1=O)N1CCCCC1 |  | inactive: -2.91% |
| COc1cccc(CN2C(=O)c3ccccc3C2C(=O)NCCc2ccccc2)c1 (stereo not given) | inconclusive [inhibitor, partial curve] |  |
| NNC(=O)C1CC(O)CN1S(=O)(=O)c1ccc2ccccc2c1 (stereo not given) |  | inactive: -19.1% |
| Cc1ccc(-c2c3c(=O)n(C)c(=O)n(C)c3cn2-n2cnnc2)cc1 | inconclusive [inhibitor, single point] |  |
| O=c1c2c(nc3cc(-c4ccc(Cl)cc4)[nH]n13)CCS2 | inconclusive [inhibitor, partial curve, poor fit] |  |
| Cc1cccc(C)c1NC(=O)c1sccc1SCC#N | active: 11.2 µM |  |
| COC(=O)C1(C(=O)OC)C[C@H](/C=C/c2ccccc2)N(Cc2ccccc2OC)[C@@H]1c1cccs1 | active: 20.6 µM and active: 25.9 µM |  |
| COc1ccc(N2CCN(CC(=O)Nc3ccc(C)c(C)c3)CC2)cc1 |  | inactive: -15.7% |
| CN(C)CCNc1nc2sc3c(c2c(=O)n1-c1ccccc1)CCCCC3 |  | inactive: 2.4% |
| COc1ccc(N2CCN(CC(O)COc3ccc4c(c3)CCC4)CC2)cc1 (stereo not given) | active: 18.4 µM |  |
| Cc1cc(=O)oc2cc(OCC(=O)Nc3ccccc3C(=O)O)ccc12 |  | inactive: 11.2% |
| Cc1ccc(C)c(N2CCN(C(=O)CCc3c(C)nn(-c4ccc(N5CCCC5)nn4)c3C)CC2)c1 | inconclusive [inhibitor, single point] |  |
| Oc1c(C(c2cccc(Br)c2)N2CCCC2)sc2nc(-c3ccco3)nn12 (stereo not given) |  | inactive: -17.8% |
| O=C(NCCc1ccccc1)c1c[nH]c2ccc(F)cc2c1=O |  | inactive: 9.16% |
| CC1(C)CC(=O)C2=C(C1)N(CCN1CCOCC1)C1=C(C(=O)CC(C)(C)C1)C2c1ccc(Cl)c([N+](=O)[O-])c1 | inconclusive [inhibitor, single point] |  |
| O=c1cc(CNc2ccc(Br)cc2)nc2sccn12 | inconclusive [inhibitor, single point] |  |
| Cc1c(Cl)c(=O)n2c(=O)c(Cl)c(C)n12 |  | inactive: 2.06% |
| Cc1cc(C(=O)CSc2nnc(Nc3ccccc3F)s2)c(C)n1CC1CCCO1 (stereo not given) | inconclusive [inhibitor, partial curve, poor fit] |  |
| CCn1c(SCc2ccccc2)nnc1C1CCCCC1 | inconclusive [inhibitor, single point] |  |
